This note sets out measurements from patent US8741893B2, “6,7-dihydro-[1,3,4]thiadiazolo-[3,2-a][1,3]diazepin derivatives and pharmaceutical compositions containing the same as hypnotic or anesthetic agent and method for their preparation” (priority 2011, dated 2014).

Each structure is given as a SMILES string.

In data set [1] the test system is mice. The data set can be described thus: Hypnotic activity, standard righting reflex method. It is filed as in vivo, Swiss albino mice. The following applies: for Induction of hypnosis: i.p., doses of 0.2-2 mmol/kg, mice.
Data set [2] relates to mice. The data set can be described thus: Mechanism(s) of action of the hypnotic effect: reversal of induced sleep by receptor blockers. It is filed as in vivo, Swiss albino mice. The following applies: GS-62 0.4 mmole/kg i.p.
The subject of data set [3] is mice. Format: in vivo. As to conditions: 98.0 mg/kg i.p. daily for 3 consecutive days. Here is the method: A group of 3 Swiss albino mice were used to conduct acute tolerance experiment. Each mouse received 0.4 mmol/kg of compound of formula 1 intraperitoneally, daily for 3 consecutive days. After each of the 3 administrations, the sleeping time-induced by the compound of formula 1 was recorded for each mouse. Representative example is shown in Example 7.
Acute tolerance test was conducted following the intraperitoneal administration of GS-62 (Example 2, 98.0 mg/kg), daily for 3 consecutive days. […] The onset and sleeping time after the first administration of the compound were 6.7±0.2 and 87±10 min., respectively; while after the last administration of the compound were 5.7±0.5 and 70±10 min., respectively.

Data set [4] concerns mice. The data set can be described thus: Potentiating effect to the non hypnotic dose of thiopental sodium. The following applies: GS-62 0.06 mmole/kg, thiopental sodium 0.06 mmole/kg, i.p.

In the case of `CCCC(C)C1(CC)C(=O)NC(=S)NC1=O` (centres unmarked) [Thiopental Na, thiopental sodium, reference compound], the Induction of hypnosis result in the data set with mice [1] was “induced hypnosis”.

For the compound `O=C1CCCN2N=C(c3ccccc3)SC2=N1` [GS-62, (E) 2-Phenyl-6,7-dihydro-[1,3,4]thiadiazolo[3,2-α][1,3]diazepin-8(5H)-one], the “Reversal of induced sleep by flumazenil” value with mice [2] (flumazenil 1.2 mg/kg i.p. after 5 minutes of sleep) is reported as “did not reverse the induced sleep”. Further, the “Reversal of induced sleep by ketanserin” value in the data set on mice [2] (ketanserin 3 mg/kg i.p. after 5 minutes of sleep) is recorded as “did not reverse the induced sleep”. In the data set on mice [2] (picrotoxin 32 mg/kg), the “Reversal of induced sleep by picrotoxin” value is reported as “no complete regaining of the righting reflex” and the “Time after picrotoxin at which attempts to regain the righting reflex were seen” value amounted to 5 min. The “Reversal of induced sleep by combination of picrotoxin and flumazenil” value with mice [2] (picrotoxin 32 mg/kg + flumazenil 1.2 mg/kg, 5 minutes after induction of sleep, N=6) was “complete reversal of sleep and regaining of the righting reflex”. Further, in the data set with mice [3], the “Difference among sleeping times after first and last administration (acute tolerance)” value is listed as “no significant differences”; the “Onset after the first administration” value is 6.7 ± 0.2 min; the “Onset after the last administration” value came out at 5.7 ± 0.5 min; the “Sleeping time after the first administration” value is 87 ± 10 min. Moreover, in the data set with mice [3], the “Sleeping time after the last administration” value came out at 70 ± 10 min. Also, the “Onset and durations of sleep compared with thiopental sodium” value with mice [1] (P<0.05, n=6) is listed as “significantly greater”. Moreover, the Induction of hypnosis entry in the data set with mice [1] is reported as “induced hypnosis”. In the data set with mice [4], the “Potentiation of one third of the minimal effective dose of thiopental sodium” value is on record as “can potentiate”.
